Source: paper PMC11995724, “Antibiotic target discovery by integrated phenotypic and activity-based profiling of electrophilic fragments” (Cell chemical biology, 2025)
Out of some 3,200 compounds screened, about 75 (2%) showed an effect of 50% or more. The list shows a part of the results.

system: T1, S. aureus MSSA476; set-up: species or system S. aureus MSSA476 (TSB) or V. cholerae SAD30 (LB); 384-well bacterial growth screen at 25 uM, OD600 relative to DMSO control; settings: relative growth, OD600, TSB; 25 µM; inhibitor
T1 construct: MSSA476

**Q.** Which “% of control remaining” value does the source give for `C=CC(=O)NCc1cc(Cl)cc(S(C)(=O)=O)c1` [3-N15, N-[(3-chloro-5-methanesulfonylphenyl)methyl]prop-2-enamide] here?
**A.** The value was 97.5185%.

**Q.** `C=CC(=O)Nc1cc(NC(=O)[C@H]2C[C@@H](C(C)=O)C2(C)C)ccc1F` [2-H22, (1S,3R)-3-acetyl-N-[4-fluoro-3-(prop-2-enamido)phenyl]-2,2-dimethylcyclobutane-1-carboxamide] was tested. Which “% of control remaining” value did it give?
**A.** The value was 99.2167%.

**Q.** With `C=CC(=O)Nc1ccc2cc(N(C)C)ccc2c1` [1-E19, N-[6-(dimethylamino)naphthalen-2-yl]prop-2-enamide] as the molecule, how does the “% of control remaining” value read?
**A.** The value was 114.286%.

**Q.** `COc1ccc(C=C(C#N)C(=O)Nc2c(C)cccc2C)cc1OC` [8-A17, 2-cyano-3-(3,4-dimethoxyphenyl)-N-(2,6-dimethylphenyl)prop-2-enamide] was tested. Which “% of control remaining” value did it give?
**A.** Its value is 99.2531%.

**Q.** For `C=CC(=O)Nc1cnn(-c2ccncc2)c1C(F)F` [1-O09, N-[5-(difluoromethyl)-1-(pyridin-4-yl)-1H-pyrazol-4-yl]prop-2-enamide], which “% of control remaining” value is on record?
**A.** Its value is 115.692%.

**Q.** How did the “% of control remaining” value turn out when `CC(Cl)C(=O)N1CCC(N(C)Cc2cc(=O)[nH]c(N(C)C)n2)C1` (centres unmarked) [7-E18, 6-({[1-(2-chloropropanoyl)pyrrolidin-3-yl](methyl)amino}methyl)-2-(dimethylamino)-3,4-dihydropyrimidin-4-one] was run?
**A.** Its value is 109.89%.

**Q.** With `CCCNC(=O)C(C#N)=Cc1cnc2c(C)cccn12` [9-N14, 2-cyano-3-{8-methylimidazo[1,2-a]pyridin-3-yl}-N-propylprop-2-enamide] as the molecule, how does the “% of control remaining” value read?
**A.** The value was 88.6891%.

**Q.** For `CCOC(=O)c1c(NC(=O)C(C)Cl)sc2c1CCC(C)C2` (centres unmarked) [5-D04, ethyl 2-(2-chloropropanamido)-6-methyl-4,5,6,7-tetrahydro-1-benzothiophene-3-carboxylate], which “% of control remaining” value is on record?
**A.** Its value is 162.477%.

**Q.** For `Cc1nn(-c2ccccc2)c(C)c1C=C(C#N)C(=O)Nc1nccs1` [9-E07, 2-cyano-3-(3,5-dimethyl-1-phenyl-1H-pyrazol-4-yl)-N-(1,3-thiazol-2-yl)prop-2-enamide], which “% of control remaining” value is on record?
**A.** Its value is 103.67%.

**Q.** For `CC(Cl)C(=O)N1CCCC1c1nc(N(C)C)no1` (centres unmarked) [7-F19, 2-chloro-1-{2-[3-(dimethylamino)-1,2,4-oxadiazol-5-yl]pyrrolidin-1-yl}propan-1-one], which “% of control remaining” value is on record?
**A.** The value was 110.518%.

**Q.** Which “% of control remaining” value does the source give for `C=CC(=O)NCCN1CCCCC1C` (centres unmarked) [2-M09, N-[2-(2-methylpiperidin-1-yl)ethyl]prop-2-enamide] here?
**A.** The value was 94.3429%.

**Q.** Which “% of control remaining” value does the source give for `C=CC(=O)N1CCC(O)(C(F)(F)C(N)=O)C1` (centres unmarked) [2-C16, 2,2-difluoro-2-[3-hydroxy-1-(prop-2-enoyl)pyrrolidin-3-yl]acetamide] here?
**A.** The value was 131.941%.

**Q.** Which “% of control remaining” value does the source give for `CCOc1ccc2nc(NC(=O)CCl)sc2c1` [4-L10, 2-chloro-N-(6-ethoxy-1,3-benzothiazol-2-yl)acetamide] here?
**A.** The value was 129.586%.

**Q.** For `O=C(CCl)Cc1ccc(F)c(F)c1` [10-O17, 1-chloro-3-(3,4-difluorophenyl)propan-2-one], which “% of control remaining” value is on record?
**A.** Its value is 107.813%.

**Q.** How did the “% of control remaining” value turn out when `NC(=O)COc1ccc(C(=O)CCl)cc1` [10-M07, 2-[4-(2-chloroacetyl)phenoxy]acetamide] was run?
**A.** Its value is 111.563%.

**Q.** Which “% of control remaining” value does the source give for `C=CC(=O)NCCC(=O)NC1CCCCC12OCCO2` (centres unmarked) [2-O08, N-[2-({1,4-dioxaspiro[4.5]decan-6-yl}carbamoyl)ethyl]prop-2-enamide] here?
**A.** Its value is 124.63%.

**Q.** For `Cl.O=C(CCl)Nc1ccc(CN2CCCCC2)cc1` [6-M04, 2-chloro-N-{4-[(piperidin-1-yl)methyl]phenyl}acetamide hydrochloride], which “% of control remaining” value is on record?
**A.** The value was 110.976%.

**Q.** How did the “% of control remaining” value turn out when `N#CC(=Cc1cn(-c2ccccc2)nc1-c1ccc(Cl)cc1)C(N)=O` [8-H16, 3-[3-(4-chlorophenyl)-1-phenyl-1H-pyrazol-4-yl]-2-cyanoprop-2-enamide] was run?
**A.** The value was 107.552%.

**Q.** `N#CC(=Cc1cc(F)ccc1F)C(=O)Nc1cc(Cl)ccc1Cl` [8-A12, 2-cyano-N-(2,5-dichlorophenyl)-3-(2,5-difluorophenyl)prop-2-enamide] was tested. Which “% of control remaining” value did it give?
**A.** The value was 131.12%.

**Q.** `C=CC(=O)Nc1ccnn1CC1CC1` [3-G09, N-[1-(cyclopropylmethyl)-1H-pyrazol-5-yl]prop-2-enamide] was tested. Which “% of control remaining” value did it give?
**A.** The value was 117.719%.

**Q.** Which “% of control remaining” value does the source give for `C=CC(=O)NC1CCC(c2nc(CC)no2)CC1` (centres unmarked) [1-O08, N-[4-(3-ethyl-1,2,4-oxadiazol-5-yl)cyclohexyl]prop-2-enamide] here?
**A.** Its value is 122.374%.

**Q.** Which “% of control remaining” value does the source give for `N#CC(=Cc1ccc(Sc2ccccc2)o1)C(=O)Nc1ccccc1` [8-K05, 2-cyano-N-phenyl-3-[5-(phenylsulfanyl)furan-2-yl]prop-2-enamide] here?
**A.** Its value is 128.465%.

**Q.** For `O=C(CCl)NC(=O)Nc1ccccc1` [4-I17, 3-(2-chloroacetyl)-1-phenylurea], which “% of control remaining” value is on record?
**A.** Its value is 104.431%.

**Q.** Which “% of control remaining” value does the source give for `O=C(CCl)Nc1ccc(F)cc1[N+](=O)[O-]` [4-I07, 2-chloro-N-(4-fluoro-2-nitrophenyl)acetamide] here?
**A.** Its value is 119.295%.

**Q.** Which “% of control remaining” value does the source give for `O=C(CCl)NCCSc1ccccc1` [4-G21, 2-chloro-N-[2-(phenylsulfanyl)ethyl]acetamide] here?
**A.** The value was 99.4759%.

**Q.** Which “% of control remaining” value does the source give for `C=CC(=O)Nc1cc(C(=O)CC)ccc1F` [2-C22, N-(2-fluoro-5-propanoylphenyl)prop-2-enamide] here?
**A.** The value was 105.135%.

**Q.** `C=CC(=O)N1CCC(C(=O)NCc2ccc(Cl)cc2Cl)CC1` [1-E20, N-[(2,4-dichlorophenyl)methyl]-1-(prop-2-enoyl)piperidine-4-carboxamide] was tested. Which “% of control remaining” value did it give?
**A.** The value was 109.363%.

**Q.** `CNC(=O)C(NC(=O)CCl)c1ccccc1` (centres unmarked) [6-M06, 2-(2-chloroacetamido)-N-methyl-2-phenylacetamide] was tested. Which “% of control remaining” value did it give?
**A.** The value was 96.9756%.

**Q.** `CN(CC(=O)Nc1ccccc1C(F)(F)F)C(=O)CCl` [4-K05, 2-chloro-N-methyl-N-({[2-(trifluoromethyl)phenyl]carbamoyl}methyl)acetamide] was tested. Which “% of control remaining” value did it give?
**A.** The value was 92.6155%.
